The whole screen tested about 310,000 compounds, of which about 14,000 (4.5%) showed an effect of 50% or more. The effect is printed as a negative number. This is one part of the list.
molecular target: human ether-à-go-go-related gene (hERG) potassium channel (human, UniProt Q12809); assay: primary screen, population patch clamp on CHO cells stably expressing hERG
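Also: peak tail current of the secondary pulse compared with the same well before compound.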

human ether-à-go-go-related gene (hERG) potassium channel, sequence (Q12809 whole entry, looked up): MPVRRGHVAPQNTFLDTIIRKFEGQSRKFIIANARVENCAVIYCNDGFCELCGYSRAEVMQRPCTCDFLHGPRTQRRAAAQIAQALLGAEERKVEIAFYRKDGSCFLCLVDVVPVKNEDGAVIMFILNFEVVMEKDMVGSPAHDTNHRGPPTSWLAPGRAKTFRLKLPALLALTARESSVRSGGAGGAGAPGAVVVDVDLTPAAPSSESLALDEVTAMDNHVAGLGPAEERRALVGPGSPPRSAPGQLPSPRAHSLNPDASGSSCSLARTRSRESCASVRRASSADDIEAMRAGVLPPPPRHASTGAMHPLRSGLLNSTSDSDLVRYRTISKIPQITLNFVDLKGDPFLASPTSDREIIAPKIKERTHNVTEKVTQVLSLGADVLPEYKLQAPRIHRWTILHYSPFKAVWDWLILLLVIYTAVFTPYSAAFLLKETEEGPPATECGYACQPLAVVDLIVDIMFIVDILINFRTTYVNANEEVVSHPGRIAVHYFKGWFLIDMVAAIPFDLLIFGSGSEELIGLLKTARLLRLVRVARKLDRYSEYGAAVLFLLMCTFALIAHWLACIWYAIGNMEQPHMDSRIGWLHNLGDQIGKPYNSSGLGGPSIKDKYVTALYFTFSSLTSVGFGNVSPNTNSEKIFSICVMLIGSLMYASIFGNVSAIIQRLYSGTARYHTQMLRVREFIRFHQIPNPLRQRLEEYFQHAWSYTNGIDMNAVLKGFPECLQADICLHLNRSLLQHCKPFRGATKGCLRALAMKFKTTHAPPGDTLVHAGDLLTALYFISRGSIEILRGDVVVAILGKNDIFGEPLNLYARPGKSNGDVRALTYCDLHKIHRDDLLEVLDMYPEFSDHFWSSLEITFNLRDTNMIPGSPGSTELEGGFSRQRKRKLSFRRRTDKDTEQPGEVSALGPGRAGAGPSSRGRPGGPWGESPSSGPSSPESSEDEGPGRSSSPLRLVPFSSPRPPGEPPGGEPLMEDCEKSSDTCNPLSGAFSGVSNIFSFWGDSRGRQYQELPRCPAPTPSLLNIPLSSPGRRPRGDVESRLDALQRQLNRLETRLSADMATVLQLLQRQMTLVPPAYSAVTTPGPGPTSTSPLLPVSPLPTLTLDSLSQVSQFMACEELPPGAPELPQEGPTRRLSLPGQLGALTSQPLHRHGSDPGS

Compound	hERG current change (%, negative = inhibition) at 10uM
CCCCCCOc1ccc(NC(=O)CC2C(=O)N(CC)C(=S)N2Cc2ccco2)cc1 (stereo not shown)	1.66%
COc1cc(NC(N)=S)c(OC)cc1Cl	6.66%
CCOc1ccc(-c2nc(-c3ccccc3C)no2)cc1	11.4%
C=CCSc1nnc2nc3c(nn12)c1cc(C)ccc1n3CC=C	-55.1%
CCOc1ccc(C(=O)NC(=S)NCc2cccnc2)cc1[N+](=O)[O-]	-2.86%
CC1CN(C(=O)C(C)N2C(=O)c3ccccc3C2=O)CC(C)O1 (stereo not shown)	-3.23%
CC(C)(C)C(=O)CSc1ncnc2sc3c(c12)CCC3	1.77%
C#Cc1ccc(CN2CCN(CCCc3ccccc3)C(CCO)C2)cc1 (stereo not shown)	-69.8%
CCOc1ccccc1-c1nc2c(s1)CCc1onc(-c3ccc(OC)cc3)c1-2	13.3%
CC(C)(C)C(=O)[C@H]1[C@H](c2ccccc2)[C@@]2(N=C(c3ccccc3)OC2=O)C2c3ccccc3C=NN21 (stereo partly shown)	10.2%
Cc1cc(C)c2c(N)c(C(=O)c3ccc(Cl)c(Cl)c3)sc2n1	12.4%
CC1CCC(C(C)C)C(OC(=O)C[n+]2cc(-c3ccc(Cl)cc3)n3c2CCC3)C1.[Cl-] (stereo not shown)	-77.1%
Cc1ccc(N2C(N)=C(C#N)C(c3cc(CN4CCOCC4)cs3)C3=C2CC(C)(C)CC3=O)cc1 (stereo not shown)	21.1%
O=C(Oc1c(Br)cc(Br)c2cccnc12)N1CCCCC1	-18.1%
C=CCOc1ccc(/C(O)=C2\C(=O)C(=O)N(CCOC)C2c2cccnc2)cc1 (stereo not shown)	-4.88%
COc1ccccc1OP(=O)(Nc1cccnc1)Oc1ccccc1OC	7.37%
N#Cc1ccc(COC(=O)CSc2nnc(C3CCCCC3)n2N)cc1	-43.2%
CN(C)S(=O)(=O)c1ccc(C(=O)NCCSc2ccccc2)cc1	-22.2%
COc1ccc(/C=N/Nc2nnc(Cc3ccccc3)c(=O)[nH]2)cc1OC	-61.4%
CC(=O)c1c[nH]c(C(=O)NCc2ccccc2Cl)c1	5.83%
CC1CCCCC1NC(=S)Nc1cccc(S(=O)(=O)N(C)C)c1 (stereo not shown)	27.6%
CCC1Sc2ccc(S(=O)(=O)Nc3ccc(OC)c(OC)c3)cc2NC1=O (stereo not shown)	-6.86%

Compound	hERG current change (%, negative = inhibition) at 10uM
C=CC(C)Sc1nc2c(c(=O)n(C)c(=O)n2C)n1Cc1ccccc1Cl (stereo not shown)	0.24%
O=[N+]([O-])c1cccc2ncccc12	11.1%
COc1cc(C(=O)Nc2ccc(N3CCCS3(=O)=O)cc2)c([N+](=O)[O-])cc1OC	-10.8%
O=C(NCCc1nc(-c2ccc(F)cc2)no1)c1ccc(F)cc1	-16.3%
Cc1ccc(N(C(=O)c2csnn2)C(C(=O)NC2CCCCC2)c2cccnc2)c(C)c1 (stereo not shown)	-5.38%
CC1CCCCC12NC(=O)N(CC(=O)NCc1ccc3c(c1)OCO3)C2=O (stereo not shown)	28.8%
C=CCNc1nc(C(=O)OCC)nc2ccccc12	11.1%
CC1Cc2cc(S(=O)(=O)N3CCC(C(=O)N4CCCCC4)CC3)ccc2N1C(=O)C1CC1 (stereo not shown)	0.0803%
Cc1cccc2c1cnn2C(=O)CCC(=O)NCC(C)c1ccccc1 (stereo not shown)	14.9%
NC(=O)c1nn(-c2ccccc2)nc1NC(=O)CN1CCOCC1	1.46%
CN(C)/C=C(/C(=O)c1ccc(Cl)cc1)S(=O)(=O)c1ccccc1	2.77%
CCOC(=O)C1=C(COC(=O)CCc2ccc(CC)cc2)NC(=O)NC1C (stereo not shown)	-8.37%
CC(C)(C)OC(=O)N[C@H](/C=C/c1ccccc1)C(=O)OC(C)(C)C	-1.94%
O=C(O)CSc1nc(-c2ccccc2)cc(=O)[nH]1	8.56%
Cc1cc(=O)[nH]c(SCC(=O)N2c3ccccc3CC2C)n1 (stereo not shown)	8.91%
COC(=O)CSc1nc2c(cnn2-c2ccc(F)cc2)c(=O)[nH]1	22.1%
CCC(C)(C)NC(=O)CN(C(=O)CNS(=O)(=O)c1ccccc1)c1ccccc1	14.3%
CCOC(=O)C1=C(O)C(=O)N(c2ccc(S(N)(=O)=O)cc2)C1c1ccc(Br)cc1 (stereo not shown)	3.66%
CN(C)CCCNC(=O)CC(c1ccc(F)cc1)c1ccco1 (stereo not shown)	-37.3%
O=C(O)C1CCC(N2C(=O)c3c(Cl)c(Cl)c(Cl)c(Cl)c3C2=O)CC1 (stereo not shown)	11.8%
Cc1ccc(OCC(=O)NCc2ccco2)cc1C	4.64%

Source: publication PMC4336329 (PLoS ONE, 2015)
